From a collection of fitness landscapes (doi:10.1126/science.1257360)
The other results are listed elsewhere or left out.

B1: PhoQ; a variant is named by its letters at X, in order, P23837 (parent)
chain: MKKLLRLFFPLSLRVRFLLATAAVVLVLSLAYGMVALIGYSVSFDKTTFRLLRGESNLFYTLAKWENNKLHVELPENIDKQSPTMTLIYDENGQLLWAQRDVPWLMKMIQPDWLKSNGFHEIEADVNDTSLLLSGDHSIQQQLQEVREDDDDAEMTHSVAVNVYPATSRMPKLTIVVVDTIPVELKSSYMVWSWFIYVLSANLLLVIPLLWVAAWWSLRPIEALAKEVRELEEHNRELLNPATTRELTSLVRNLNRLLKSERERYDKYRTTLTDLTHSLKTPLXXLQXXLRSLRSEKMSVSDAEPVMLEQISRISQQIGYYLHRASMRGGTLLSRELHPVAPLLDNLTSALNKVYQRKGVNISLDISPEISFVGEQNDFVEVMGNVLDNACKYCLEFVEISARQTDEHLYIVVEDDGPGIPLSKREVIFDRGQRVDTLRPGQGVGLAVAREITEQYEGKIVAGESMLGGARMEVIFGRQHSAPKDE

Variants of: B1
Assay: enrichment ratio after two sorts for PhoP signalling (ratio (wild type AVST 3.29)); higher = more functional
Conditions: with PhoP (E. coli)

Row | Variant | enrichment ratio
1 | QNFM | ≤ 0.25
2 | MYKD | ≤ 0.25
3 | SKIV | 4.99
4 | AEAN | 28.2
5 | DMMG | ≤ 0.25
6 | IHRF | ≤ 0.25
7 | PEFG | ≤ 0.25
8 | ITEW | ≤ 0.25
9 | YMHK | ≤ 0.25
10 | LCDC | ≤ 0.25
11 | SMLQ | 3.61
12 | NNKV | ≤ 0.25
13 | YDFS | ≤ 0.25
14 | VVMW | ≤ 0.25
15 | HRVH | ≤ 0.25
16 | NLHD | ≤ 0.25
17 | VERE | ≤ 0.25
18 | MTQP | ≤ 0.25
19 | LNQP | ≤ 0.25
20 | EHSN | ≤ 0.25
21 | TIEA | ≤ 0.25

Row | Variant | enrichment ratio
22 | FQMK | ≤ 0.25
23 | DPYQ | ≤ 0.25
24 | AQSF | 11.9
25 | HNAL | ≤ 0.25
26 | WCPC | ≤ 0.25
27 | VMIE | ≤ 0.25
28 | QIWK | ≤ 0.25
29 | DNVN | ≤ 0.25
30 | AIGC | 5.62
31 | MLRS | ≤ 0.25
32 | EKVA | ≤ 0.25
33 | ETGQ | ≤ 0.25
34 | KEEH | ≤ 0.25
35 | ACPM | 0.39
36 | NKWN | ≤ 0.25
37 | PPTC | ≤ 0.25
38 | WSSI | ≤ 0.25
39 | IYLE | ≤ 0.25
40 | WVML | ≤ 0.25
41 | NNYG | ≤ 0.25
42 | AVQY | ≤ 0.25

Row | Variant | enrichment ratio
43 | TDMI | 27.6
44 | FSRH | ≤ 0.25
45 | RGVH | ≤ 0.25
46 | TFPE | ≤ 0.25
47 | QNHY | ≤ 0.25
48 | KMDS | ≤ 0.25
49 | TRDE | ≤ 0.25
50 | QNFW | ≤ 0.25
51 | ANFV | ≤ 0.25
52 | KEAG | ≤ 0.25
53 | ATEL | ≤ 0.25
54 | WHNG | ≤ 0.25
55 | HMLF | ≤ 0.25
56 | MWTC | ≤ 0.25
57 | TRIF | ≤ 0.25
58 | FDVY | ≤ 0.25
59 | YDDQ | ≤ 0.25
60 | HFRQ | ≤ 0.25
61 | MRSD | ≤ 0.25
62 | ERPI | ≤ 0.25
63 | HFRE | ≤ 0.25

Row | Variant | enrichment ratio
64 | FGMH | ≤ 0.25
65 | KMFY | ≤ 0.25
66 | QTPR | ≤ 0.25
67 | KRDD | ≤ 0.25
68 | QPVF | ≤ 0.25
69 | FKTL | ≤ 0.25
70 | ICPD | ≤ 0.25
71 | FRLN | ≤ 0.25
72 | QQLC | ≤ 0.25
73 | RLQV | ≤ 0.25
74 | NRQF | ≤ 0.25
75 | LCYM | ≤ 0.25
76 | KVQS | ≤ 0.25
77 | AGVQ | 10.8
78 | TQLI | 11.2
79 | FKQR | ≤ 0.25
80 | MHAH | ≤ 0.25
81 | GIPS | ≤ 0.25
82 | PHRV | ≤ 0.25
83 | SLYI | ≤ 0.25
84 | DLEF | ≤ 0.25
